Source: patent US20180179267A1 (published 2018)

Assays:
LukGH_H19 = target: T1, LukGH_H19; experiment: ForteBio
T1 chain 1: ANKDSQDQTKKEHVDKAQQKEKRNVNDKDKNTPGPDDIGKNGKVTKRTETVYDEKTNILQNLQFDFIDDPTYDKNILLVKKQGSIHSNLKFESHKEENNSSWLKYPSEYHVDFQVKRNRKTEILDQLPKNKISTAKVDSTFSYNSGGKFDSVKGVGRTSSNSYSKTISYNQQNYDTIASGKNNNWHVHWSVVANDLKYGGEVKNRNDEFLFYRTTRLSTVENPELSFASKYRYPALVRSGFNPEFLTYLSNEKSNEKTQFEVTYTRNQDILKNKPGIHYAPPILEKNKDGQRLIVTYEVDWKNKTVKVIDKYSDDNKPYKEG
T1 chain 2: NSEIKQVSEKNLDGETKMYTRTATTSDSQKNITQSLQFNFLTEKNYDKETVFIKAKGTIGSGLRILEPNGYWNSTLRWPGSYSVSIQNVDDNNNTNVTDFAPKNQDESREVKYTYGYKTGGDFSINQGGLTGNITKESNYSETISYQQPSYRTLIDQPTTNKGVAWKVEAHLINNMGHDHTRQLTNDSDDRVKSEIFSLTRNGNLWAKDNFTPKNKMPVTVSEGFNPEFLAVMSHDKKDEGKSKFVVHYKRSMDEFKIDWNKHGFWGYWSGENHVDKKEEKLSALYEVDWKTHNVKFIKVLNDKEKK

LukG_TCH1516 [1] = target: T2, LukG_TCH1516; experiment: ForteBio
T2 chain: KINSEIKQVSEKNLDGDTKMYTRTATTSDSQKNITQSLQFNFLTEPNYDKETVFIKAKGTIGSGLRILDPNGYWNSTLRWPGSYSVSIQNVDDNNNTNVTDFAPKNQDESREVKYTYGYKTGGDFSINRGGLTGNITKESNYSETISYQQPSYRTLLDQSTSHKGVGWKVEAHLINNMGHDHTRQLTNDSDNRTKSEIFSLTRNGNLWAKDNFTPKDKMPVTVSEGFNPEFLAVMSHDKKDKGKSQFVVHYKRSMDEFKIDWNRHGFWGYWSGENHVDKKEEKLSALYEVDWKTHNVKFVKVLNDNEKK

LukGH_MRSA252 = target: T3, LukGH_MRSA252; experiment: ForteBio
T3 chain 1: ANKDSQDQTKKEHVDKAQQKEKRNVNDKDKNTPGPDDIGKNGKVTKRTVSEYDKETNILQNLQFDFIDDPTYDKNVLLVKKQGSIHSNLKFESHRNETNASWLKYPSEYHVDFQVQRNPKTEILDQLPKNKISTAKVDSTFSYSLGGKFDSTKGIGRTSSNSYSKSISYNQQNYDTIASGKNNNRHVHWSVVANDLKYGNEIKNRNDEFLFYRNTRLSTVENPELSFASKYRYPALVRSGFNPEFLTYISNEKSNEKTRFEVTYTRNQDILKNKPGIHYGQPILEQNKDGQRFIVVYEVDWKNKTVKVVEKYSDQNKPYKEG
T3 chain 2: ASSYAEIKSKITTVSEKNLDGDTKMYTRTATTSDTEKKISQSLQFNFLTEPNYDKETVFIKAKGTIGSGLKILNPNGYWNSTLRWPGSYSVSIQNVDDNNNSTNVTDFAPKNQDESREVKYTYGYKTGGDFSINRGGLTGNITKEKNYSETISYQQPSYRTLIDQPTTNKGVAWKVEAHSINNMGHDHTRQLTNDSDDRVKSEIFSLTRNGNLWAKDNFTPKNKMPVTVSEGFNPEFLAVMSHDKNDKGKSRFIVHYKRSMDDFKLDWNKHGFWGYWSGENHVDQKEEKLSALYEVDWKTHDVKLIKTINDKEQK

LukGH_MSHR1132 = target: T4, LukGH_MSHR1132; experiment: ForteBio
T4 chain 1: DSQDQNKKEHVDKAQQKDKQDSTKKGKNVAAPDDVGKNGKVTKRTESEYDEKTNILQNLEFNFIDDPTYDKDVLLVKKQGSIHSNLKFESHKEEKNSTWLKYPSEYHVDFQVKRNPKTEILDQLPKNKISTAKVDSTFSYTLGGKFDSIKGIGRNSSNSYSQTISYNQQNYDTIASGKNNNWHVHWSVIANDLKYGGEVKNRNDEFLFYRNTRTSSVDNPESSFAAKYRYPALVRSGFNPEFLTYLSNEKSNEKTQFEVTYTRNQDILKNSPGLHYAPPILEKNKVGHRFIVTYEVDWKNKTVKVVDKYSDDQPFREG
T4 chain 2: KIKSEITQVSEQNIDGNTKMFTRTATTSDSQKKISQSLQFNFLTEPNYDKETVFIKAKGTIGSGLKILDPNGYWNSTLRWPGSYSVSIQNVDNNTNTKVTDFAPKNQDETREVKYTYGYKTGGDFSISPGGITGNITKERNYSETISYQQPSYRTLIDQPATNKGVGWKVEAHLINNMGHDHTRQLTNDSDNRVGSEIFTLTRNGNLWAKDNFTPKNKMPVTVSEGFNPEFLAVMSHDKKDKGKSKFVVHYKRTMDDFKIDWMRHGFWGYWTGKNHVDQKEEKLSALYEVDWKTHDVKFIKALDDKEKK

[2] = target: T5, LukGH of S. aureus USA300 TCH1516 (UniProt Q2FFA2 28-351; P21224 30-338); experiment: ForteBio
T5 chain 1: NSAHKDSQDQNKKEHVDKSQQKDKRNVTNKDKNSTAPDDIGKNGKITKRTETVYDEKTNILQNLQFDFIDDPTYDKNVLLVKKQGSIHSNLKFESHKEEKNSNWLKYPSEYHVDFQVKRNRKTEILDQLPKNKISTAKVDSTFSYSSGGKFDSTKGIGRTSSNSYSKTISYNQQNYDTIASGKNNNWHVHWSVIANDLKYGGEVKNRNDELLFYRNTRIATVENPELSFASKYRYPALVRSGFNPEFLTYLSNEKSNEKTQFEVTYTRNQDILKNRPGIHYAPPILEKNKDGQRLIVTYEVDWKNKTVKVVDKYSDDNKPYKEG
T5 chain 2: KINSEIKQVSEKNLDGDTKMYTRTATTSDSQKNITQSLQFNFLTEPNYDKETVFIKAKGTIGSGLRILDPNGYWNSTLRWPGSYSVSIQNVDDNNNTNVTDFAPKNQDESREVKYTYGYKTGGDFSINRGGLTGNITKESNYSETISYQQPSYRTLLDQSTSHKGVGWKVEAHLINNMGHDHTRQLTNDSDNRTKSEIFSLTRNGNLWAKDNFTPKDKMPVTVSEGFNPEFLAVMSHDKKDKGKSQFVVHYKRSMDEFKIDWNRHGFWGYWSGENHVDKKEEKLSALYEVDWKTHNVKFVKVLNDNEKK

[3] = target: T5, LukGH of S. aureus USA300 TCH1516; experiment: MSD; Fab
LukG_TCH1516 [4] = target: T2, LukG_TCH1516; experiment: MSD; Fab

| Binder | Kd (LukGH_H19) [nM] | Kd (LukG_TCH1516 [1]) [nM] | Kd (LukGH_MRSA252) [nM] | Kd (LukGH_MSHR1132) [nM] | Kd [2] [nM] | Kd [3] [nM] | Kd (LukG_TCH1516 [4]) [nM] |
| --- | --- | --- | --- | --- | --- | --- | --- |
| AB-34-6 (antibody) chain 1: QVQLVQSGAEVKKPGSSVKVSCKASGGTIWSEAISWVRQAPGQGLEWMGGIIPIFGDAVYAQKFQGRVTITADESTSTAYMELSSLRSEDTAVYYCARAREGDDPYGMDVWGQGTTVTVSS[human IgG1 constant region omitted here] chain 2: [about 100 residues omitted here][about 120 residues omitted here] | 0.24 | 12 | 0.2 | 0.62 | 0.18 | 0.0012 |  |
| AB-32-6 (antibody) chain 1: QLQLQESGPGLVKPSETLSLTCTVSGGSISSGSYYWDWIRQPPGKGLEWIGNIYKSGSTYYNPSLKSRVTISVDTSKNQFSLKLSSVTAADTAVYYCARERGMHYMDVWGKGTTVTVSS[human IgG1 constant region omitted here] chain 2: DIQMTQSPSSLSASVGDRVTITCRASQSINSYLNWYQQKPGKAPKLLIYAASSLQSGVPSRFSGSGSGTDFTLTISSLQPEDFATYYCQQQFDPPFTFGGGTKVEIKRTVAAPSVFIFPPSDEQLKSGTASVVCLLNNFYPREAKVQWKVDNALQSGNSQESVTEQDSKDSTYSLSSTLTLSKADYEKHKVYACEVTHQGLSSPVTKSFNRGEC | 0.23 | 31 | 0.26 | 0.23 | < 0.12 | 0.0028 | 0.26 |
| AB-32-9 (antibody) chain 1: ELQLQESGPGLVKPSETLSLTCTVSGGSISSGSYYWDWIRQPPGKGLEWIGNIYKSGSTYYNPSLKSRVTISVDTSKNQFSLKLSSVTAADTAVYYCARERGMHYMDVWGKGTTVTVSS[human IgG1 constant region omitted here] chain 2: DIQMTQSPSSLSASVGDRVTITCRASQSINSYLNWYQQKPGKAPKLLIYAASSLQSGVPSRFSGSGSGTDFTLTISSLQPEDFATYYCQQQFDPPFTFGGGTKVEIKRTVAAPSVFIFPPSDEQLKSGTASVVCLLNNFYPREAKVQWKVDNALQSGNSQESVTEQDSKDSTYSLSSTLTLSKADYEKHKVYACEVTHQGLSSPVTKSFNRGEC | 0.27 | 29 | 0.31 | 0.28 | < 0.12 |  |  |
| AB-34 (antibody) chain 1: QVQLVQSGAEVKKPGSSVKVSCKASGGTFSSWAISWVRQAPGQGLEWMGGIIPIFGEAAYAQKFQGRVTITADESTSTAYMELSSLRSEDTAVYYCARAREGDDPYGMDVWGQGTTVTVSS[human IgG1 constant region omitted here] chain 2: [about 100 residues omitted here][about 120 residues omitted here] | 0.22 | 6.9 | 0.21 | 0.36 | 0.095 | < 0.0005 | 0.11 |
| AB-34-15 (antibody) chain 1: EVQLVQSGAEVKKPGSSVKVSCKASGGTIWSEAISWVRQAPGQGLEWMGGIIPIFGDAVYAQKFQGRVTITADESTSTAYMELSSLRSEDTAVYYCARAREGDDPYGMDVWGQGTTVTVSS[human IgG1 constant region omitted here] chain 2: [about 100 residues omitted here][about 120 residues omitted here] | 0.27 | 12 | 0.24 | 0.78 | 0.2 |  |  |
| AB-34-14 (antibody) chain 1: EVQLVQSGAEVKKPGSSVKVSCKASGGTFSSWAISWVRQAPGQGLEWMGGIIPIFGEAAYAQKFQGRVTITADESTSTAYMELSSLRSEDTAVYYCARAREGDDPYGMDVWGQGTTVTVSS[human IgG1 constant region omitted here] chain 2: [about 100 residues omitted here][about 120 residues omitted here] | 0.24 | 6.8 | 0.22 | 0.38 | 0.094 |  |  |
